From ChEMBL document CHEMBL4888484, “Replenishing the malaria drug discovery pipeline: Screening and hit evaluation of the MMV Hit Generation Library 1 (HGL1) against asexual blood stage Plasmodium falciparum ,using a nano luciferase reporter read-out” (2022)
In all, about 150,000 compounds went through this assay and about 540 (0.36%) showed an effect of 50% or more. Some of the results follow.

System: Plasmodium falciparum
Test: Primary screen in NF54 nanoGlo assay, in single point, at 2uM, 72h; a lower Z score goes with more inhibition
Assay type: functional, Erythrocyte
Conditions: timepoint 72 hour

Row | Structure (SMILES) | % Inhibition [%] | Z score
1 | CCCCn1c(N)c(N(C(=O)Cn2ccc(C(F)(F)F)n2)C2CCCC2)c(=O)[nH]c1=O | -10 | 1.3
2 | CCn1ccnc1CN(C)CCc1cnn(C)c1 | -6 | 0.67
3 | COc1ccc(-c2n[nH]c(C3CC3)c2NC(=O)Nc2ccc(F)cc2)c(OC)c1 | -15 | 2.66
4 | COCCN(CCN(C)C)C(=O)c1cnn(C(C)(C)C)c1 | -6 | 0.84
5 | Cn1ccnc1CNc1cccc(C(=O)NC2CC2)c1 | -4 | 0.73
6 | O=C(Nc1ccc2oc(C3CC3)nc2c1)c1ccccc1C(F)(F)F | 14 | -1.84
7 | COc1cc(NC(=O)COc2ccccc2Cl)ncn1 | 4 | -0.73
8 | CCc1nnc(Cn2ccc(=O)c3sccc32)o1 | -5 | 0.55
9 | C[C@H](NCCCNS(C)(=O)=O)c1ccccc1Br | -13 | 2.08
10 | Cc1nc(CC(C)C)oc1C(=O)O[C@@H](C)c1nccs1 | -7 | 1
11 | Cc1cccc([C@@H]2CCCN2Cc2cnc(C3CC3)s2)n1 | 0 | -0.05
12 | Cn1cc(OC[C@H]2CCCC2(F)F)cn1 | -9 | 1.27
13 | Cc1cc(-n2cnnn2)cc(C)c1S(=O)(=O)N1CCCc2ccccc21 | 29 | -3.33
14 | Cc1cc(Cl)cc(C(=O)[C@H](C#N)c2nc(C)cc(C)n2)c1 | -18 | 2.47
15 | CC[C@H](NCc1noc2c1CCCC2)c1cccc(S(N)(=O)=O)c1 | -5 | 0.61
16 | COCc1nc(CN2C[C@@H](C)[C@@](C)(O)C2)no1 | -5 | 0.48
17 | O=C([C@@H]1CCCO1)N1CCc2ccc(Br)cc2C1 | -4 | 0.45
18 | COc1c(C)cc(C(=O)[C@H]2CCCN(S(=O)(=O)c3c(C)nn(C)c3Cl)C2)cc1C | -10 | 0.9
19 | CCN1CCCC[C@H]1C(=O)NCc1ccccc1CN1CCOCC1 | -4 | 0.53
20 | CN(Cc1ccco1)C(=O)Nc1nncs1 | -18 | 3.37
21 | O=C([C@@H](c1ccccc1)N1CCC(O)CC1)N1CC(Cc2ccccc2)C1 | -16 | 2.2
22 | CCc1c(C)nc(N)nc1NCc1nncn1CCOC | -13 | 1.66

Row | Structure (SMILES) | % Inhibition [%] | Z score
23 | CCc1ncc(CN(C)Cc2cccc(CN(C)C)c2)cn1 | 5 | -0.68
24 | Cc1cccnc1CN(Cc1ccccc1)C(=O)c1cc(C#N)cn1C | -12 | 1.26
25 | O=C(CN1C(=O)c2ccccc2C1=O)N1CCN(c2cccc(C(F)(F)F)c2)CC1 | -3 | 0.53
26 | CC(C)[C@]1(C)CC(=O)N(CC(=O)NCc2ccc(C(=O)N3CCOCC3)cc2)C1=O | -1 | 0.16
27 | Cc1nn(-c2nc3ccccc3[nH]2)c2c1[C@@H](c1ccc(Cl)c(Cl)c1)CC(=O)N2 | 14 | -1.74
28 | CCc1nsc(N2CCCC2C2CCCC2O)n1 (configuration not stated) | 2 | -0.38
29 | Cc1cc(OCC(=O)c2ccc(Br)cc2)ccc1N1C(=O)CCC1=O | -10 | 1.14
30 | COc1ccccc1[C@@H]1CC(c2cccn2C)=NN1C(=O)CN(C)C(=O)c1ccccc1Cl | -15 | 1.43
31 | N#CCc1cccc(NC(=O)NCc2cccc3c2CCNC3)c1 | -14 | 1.5
32 | CC1=C(C)C[C@@H](C(=O)NS(=O)(=O)c2c(N)noc2C)CC1 | 4 | -0.83
33 | Cc1ccc(-c2noc(CN3CC[N+](C)(Cc4nc(-c5ccc(C)cc5)no4)CC3)n2)cc1 | 7 | -0.89
34 | COc1ccc(CC(=O)N2CCc3nc(N4CCCC4)nc(N4CCCCC4)c3C2)cc1 | -12 | 1.39
35 | CCC1(CC)NC(=O)N(C[C@H](O)C(F)(F)F)C1=O | -18 | 1.98
36 | Cc1nc(N[C@@H](C)Cn2cncn2)c2cccnc2n1 | -9 | 0.89
37 | CCc1ccccc1NC(=O)CN1CCC[C@H](C(=O)Nc2cnccn2)C1 | -8 | 1.6
38 | O=C(NCCc1c[nH]c2ccccc12)C1CN(c2nc3c(F)cccc3s2)C1 | -4 | 0.61
39 | CN1CC(=O)N(CC(=O)N(Cc2ccccn2)Cc2ccco2)C1=O | 16 | -2.86
40 | NC[C@H]1CCCCN1C(=O)NCc1ccc(-c2cccc(Cl)c2)o1 | 19 | -2.54
41 | CNc1cc(C)nc(-c2ccc(C(=O)N(C)[C@@H](C)c3cccs3)cc2)n1 | -17 | 2.06
42 | Cc1ccc(F)cc1CN1CC[C@H](O)C1 | -3 | 0.25
43 | Cc1ccccc1Cc1nc(-c2ccc(S(=O)(=O)N3CCC(C)CC3)cc2)no1 | -4 | 0.72
44 | O=C(c1cc2ccccc2o1)N(C(=O)N1CCCCC1)c1ccccc1 | -6 | 0.99

Row | Structure (SMILES) | % Inhibition [%] | Z score
45 | CC[C@@H](CCO)CNc1cnc(C(=O)OC(C)(C)C)cn1 | -11 | 1.38
46 | Cc1ccc(-c2nnc(NC(=O)CN3CCOC3=O)s2)cc1 | -9 | 1.67
47 | COc1cc(CN2CCN(c3nc(CO)cs3)C[C@@H]2CCO)cc(OC)c1 | 0 | -0.06
48 | CC1=C(C(=O)N2CCOCC2)[C@H](c2ccc(OCc3ccccc3)cc2)n2nc(C)nc2N1 | -5 | 0.61
49 | O=C(NC1CCCCC1)N1CCC[C@H]1c1nc2cc(-c3ccccc3F)ccc2o1 | -12 | 1.3
50 | CN(CCN1CCN(c2ccccc2)CC1)C(=O)C1=COCCC1 | 3 | -0.3
51 | Cc1cc(NC(=O)CN2CC[S@@+]([O-])CC2(C)C)no1 | 7 | -0.9
52 | O=c1ccc(S(=O)(=O)N2CCCCC2)cn1Cc1ccc(Cl)cc1 | -9 | 1.67
53 | O=S(=O)(C1CCCCC1)N1CC(Oc2nccs2)C1 | -5 | 0.59
54 | Cc1ccc(S(=O)(=O)N(Cc2nccn2Cc2ccccc2C)C2CCCCC2)cc1 | -10 | 1.44
55 | CCc1cccc(NC(=O)CNCc2cscn2)c1 | -6 | 1.15
56 | Cc1nc(-c2cc(S(=O)(=O)NC(C)C)cn2C)sc1C(=O)N1CCCCC1 | -13 | 1.53
57 | Cc1csc(NC(=O)COC(=O)[C@H](C)N2C(=O)c3cc(Cl)c(Cl)cc3C2=O)n1 | 1 | -0.09
58 | O=C(Nc1ccccc1C(=O)O)c1cc(Cl)c(Cl)c(S(=O)(=O)N2CCOCC2)c1 | -26 | 3.1
59 | N#Cc1ccc(OC2CCN(C(=O)Nc3cccnc3)CC2)cc1 | -17 | 2.11
60 | CCc1nc2cc(CNS(=O)(=O)C3CC3)ccc2n1C1CC1 | 14 | -1.32
61 | O=C(NC(C1CC1)C1CC1)c1cncc(Br)c1 | -3 | 0.53
62 | Cc1nn(-c2ccccc2)c(Cl)c1[C@H]1Nc2ccccc2C(=O)N1c1ccccc1 | -24 | 2.86
63 | CC(C)n1cc(CNCCC(=O)Nc2cccnc2)cn1 | -9 | 0.82
64 | CC[C@H](C)NC(=O)CCc1nnc(C(=O)Nc2ccc(F)cc2)s1 | -1 | 0.27
65 | CCCC1(C)C(=O)NCCN1C(=O)c1cc(N2CC(C)OC(C)C2)ccn1 (configuration not stated) | -33 | 3.87
66 | COc1ccccc1CNC(=O)C[C@H]1CCCN(c2cnn(C)c(=O)c2)C1 | -1 | 0.09

Row | Structure (SMILES) | % Inhibition [%] | Z score
67 | CN1CCC(n2ccc(NC(=O)N(C)Cc3ccc(F)cc3F)n2)CC1 | 3 | -0.38
68 | CN(C)c1ccnc(NC(=O)NCC(F)(F)C(F)F)n1 | 1 | -0.21
69 | CC(=O)N1CCN(CC[C@H]2CN(C(=O)NC3CCCCC3)CC[C@H]2CC(=O)OC(C)(C)C)CC1 | -6 | 0.87
70 | COC(CN(C)Cc1ncnn1C)OC | -8 | 1.24
71 | O=S(=O)(Nc1cccnc1)N1CCCCC1 | 3 | -0.34
72 | COc1ccc(CCNC(=O)N2CCC3(CC2)CN(C)CCN3C)cc1 | 0 | -0.03
73 | C=CCC[C@H](O)CN(C)c1cnn(C)c1 | 14 | -1.54
74 | CCCCN(C)C(=O)c1snc2c(=O)n(CC(C)C)c(=O)[nH]c12 | 6 | -1.04
75 | CN1C(=O)NC(C)(C2CCCN(CCC3CCCC3)C2)C1=O (configuration not stated) | 1 | -0.17
76 | CCCn1cnnc1CN(C)C(=O)Cn1cccc(OC)c1=O | -11 | 2.11
77 | CC(NC(=O)CC1CC2CCC1C2)c1nncn1C (configuration not stated) | -9 | 1.53
78 | NC(=O)c1ccc(N[C@@H](C(=O)N2CCCCC2)c2ccccc2)cc1 | -6 | 1
79 | Cc1ccc(S(=O)(=O)N[C@H]2CCN(C3CCCC3)C2)c(C)c1 | -7 | 0.68
80 | Cc1nn(C)c(C)c1NC(=O)Cn1cnc2ccccc2c1=O | -1 | 0.18
81 | CN[C@H]1CCCN(C(=O)NCc2cccnc2C)c2ccccc21 | -13 | 2.37
82 | CN(C)CC(=O)NCC1(N2CCOC(C)(C)C2)CCCCC1 | 2 | -0.27
83 | Cc1n[nH]c(C)c1S(=O)(=O)N1CC[C@@](O)(C2CCOCC2)[C@H](C)C1 | -10 | 1.97
84 | CCN1CC2(CCN(Cc3ccc(OCC(N)=O)c(OC)c3)CC2)OC1=O | -10 | 1.94
85 | O=c1cc(Nc2ccccc2)c2ccccc2[nH]1 | -6 | 0.84
86 | COc1cc2c(cc1-c1nccn1CCN1CCCC1)CCC2 | 5 | -0.82
